What all share (test): HotSpot kinase assay
Conditions in all cases: read-out: % Enzyme Activity (relative to DMSO control), 10 uM

For experiment [1], the target named is CLK3 (Homo sapiens, UniProt P49761).
For experiment [2], the target named is MST3/STK24 (Homo sapiens, UniProt Q9Y6E0).
Experiment [3] has as its target RET (Homo sapiens, UniProt P07949).
The target of experiment [4] is T1, PLK4/SAK (Homo sapiens, UniProt O00444).
T1 sequence (O00444 1-970): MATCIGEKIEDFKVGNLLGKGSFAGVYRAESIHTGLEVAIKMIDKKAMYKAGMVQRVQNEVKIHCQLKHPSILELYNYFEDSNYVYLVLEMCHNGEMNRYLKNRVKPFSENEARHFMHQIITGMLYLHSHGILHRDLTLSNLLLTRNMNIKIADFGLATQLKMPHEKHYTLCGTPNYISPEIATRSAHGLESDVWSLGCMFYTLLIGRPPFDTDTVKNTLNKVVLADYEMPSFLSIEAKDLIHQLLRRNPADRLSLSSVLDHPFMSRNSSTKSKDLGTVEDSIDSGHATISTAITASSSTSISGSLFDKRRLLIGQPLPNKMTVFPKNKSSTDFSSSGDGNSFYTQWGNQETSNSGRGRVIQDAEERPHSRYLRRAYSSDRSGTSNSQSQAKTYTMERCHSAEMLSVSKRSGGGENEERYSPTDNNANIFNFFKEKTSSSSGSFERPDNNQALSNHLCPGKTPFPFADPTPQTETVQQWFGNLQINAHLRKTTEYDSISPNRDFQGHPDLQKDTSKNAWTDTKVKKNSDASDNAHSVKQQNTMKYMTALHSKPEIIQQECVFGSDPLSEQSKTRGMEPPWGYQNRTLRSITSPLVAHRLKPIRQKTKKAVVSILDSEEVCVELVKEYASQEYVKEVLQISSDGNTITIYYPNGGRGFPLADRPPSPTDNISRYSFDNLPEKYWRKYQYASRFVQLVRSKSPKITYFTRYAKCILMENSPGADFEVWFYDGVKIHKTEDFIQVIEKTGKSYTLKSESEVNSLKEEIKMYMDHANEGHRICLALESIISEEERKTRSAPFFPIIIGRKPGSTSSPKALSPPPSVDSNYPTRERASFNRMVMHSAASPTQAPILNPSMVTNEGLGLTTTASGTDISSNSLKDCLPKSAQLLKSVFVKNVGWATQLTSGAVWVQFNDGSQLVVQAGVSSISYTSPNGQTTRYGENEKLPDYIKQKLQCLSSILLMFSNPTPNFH

Experiment [5] concerns the target CDK5/p35 (Homo sapiens, UniProt Q00535).

Consider `C#C[C@@](C)(c1ccc(Cl)cc1)c1csc(NC(=O)c2c(F)cc(N3CCNCC3)cc2F)n1` (stereo in doubt) [DF-003], for which the remaining activity at 10 µM turned out to be 84.8% in experiment [1]; 87.6% in experiment [2]; 84.5% in experiment [3]; 86.5% in experiment [4]; 91.8% in experiment [5].

The values are drawn from PMC12420824, “Discovery of a selective alpha-kinase 1 inhibitor for the rare genetic disease ROSAH syndrome” (Nature Communications, 2025).
